{
  "source": "PubChem BioAssay AID1259409",
  "about": "(Chemical Carcinogenesis Research Information System (CCRIS), 2018)",
  "origin": "cited, not measured here",
  "system": "rodent chemically induced tumor inhibition, incidence and multiplicity",
  "assay": "CCRIS tumor inhibitor studies",
  "conditions": "Dose [Inhibitor]: 0, Route [Inhibitor]: ORAL, Species: RAT, Strain/Sex: F344/MALE, Promoter: NONE USED",
  "source_text": "The CCRIS database contains chemical records with carcinogenicity, mutagenicity, tumor promotion, and tumor inhibition test results. It was developed by the National Cancer Institute (NCI). Data are derived from studies cited in primary journals, current awareness tools, NCI reports, and other sources. Test results have been reviewed by experts in carcinogenesis and mutagenesis.\nCCRIS provides historical information from the years 1985 - 2011. It is no longer updated.\nThis is an archive assay for CCRIS tumor inhibitor studies.",
  "note": "“Also recorded” adds a separate entry of the source. A number of entries come with more than one value. Only these are listed. The source may hold further records. Results that share an entry are repeats in other runs, samples, wells, individuals or studies. What stands in brackets tells the records apart. Letters count within one entry.",
  "data": [
    {"compound": "O=C(O)c1ccc(O)c(O)c1", "values": [
      {"measurement": "tumour outcome (control, treated, inhibition, significance)", "setting": "Carcinogen: 4-NITROQUINOLINE-1-OXIDE, 56-57-5, 500 PPM IN DIET FOR 22 WK BEGINNING 1 WK POST CARCINOGEN TREATMENT (STUDY DURATION: 32 WK), Target Tissue: Type of Lesion: TONGUE: CARCINOMA, Dose [Carcinogen]: 20 PPM IN DRINKING WATER FOR 8 WK", "result": "11/19 (58%), 1/21 (5%), 91%, p<0.001 [study A] and 58%, 5%, 91%, p<0.05 [study B]"},
      {"measurement": "tumour outcome (control, treated, inhibition, significance)", "setting": "Carcinogen: 4-NITROQUINOLINE-1-OXIDE, 56-57-5, 1000 PPM IN DIET FOR 10 WK BEGINNING 1 WK PRIOR TO CARCINOGEN TREATMENT (STUDY DURATION: 32 WK), Target Tissue: Type of Lesion: TONGUE: CARCINOMA, Dose [Carcinogen]: 20 PPM IN DRINKING WATER FOR 8 WK", "result": "11/19 (58%), 0/19 (0%), 100%, p<0.001 [study A] and 58%, 0%, 100%, p<0.05 [study B]"},
      {"measurement": "tumour outcome (control, treated, inhibition, significance)", "setting": "Carcinogen: 4-NITROQUINOLINE-1-OXIDE, 56-57-5, 1000 PPM IN DIET FOR 22 WK BEGINNING 1 WK POST CARCINOGEN TREATMENT (STUDY DURATION: 32 WK), Target Tissue: Type of Lesion: TONGUE: CARCINOMA, Dose [Carcinogen]: 20 PPM IN DRINKING WATER FOR 8 WK", "result": "11/19 (58%), 2/19 (11%), 81%, p<0.01 [study A] and 58%, 11%, 81%, p<0.05 [study B]"},
      {"measurement": "tumour outcome (control, treated, inhibition, significance)", "setting": "Carcinogen: 4-NITROQUINOLINE-1-OXIDE, 56-57-5, 2000 PPM IN DIET FOR 10 WK BEGINNING 1 WK PRIOR TO CARCINOGEN TREATMENT (STUDY DURATION: 32 WK), Target Tissue: Type of Lesion: TONGUE: CARCINOMA, Dose [Carcinogen]: 20 PPM IN DRINKING WATER FOR 8 WK", "result": "11/19 (58%), 0/21 (0%), 100%, p<0.001 [study A] and 58%, 0%, 100%, p<0.05 [study B]"},
      {"measurement": "tumour outcome (control, treated, inhibition, significance)", "setting": "Carcinogen: 4-NITROQUINOLINE-1-OXIDE, 56-57-5, 2000 PPM IN DIET FOR 22 WK BEGINNING 1 WK POST CARCINOGEN TREATMENT (STUDY DURATION: 32 WK), Target Tissue: Type of Lesion: TONGUE: CARCINOMA, Dose [Carcinogen]: 20 PPM IN DRINKING WATER FOR 8 WK", "result": "11/19 (58%), 0/20 (0%), 100%, p<0.001 [study A] and 58%, 0%, 100%, p<0.05 [study B]"},
      {"measurement": "tumour outcome (control, treated, inhibition, significance)", "setting": "Carcinogen: N-METHYL-N-NITROSOUREA, 684-93-5, 500 PPM IN DIET FOR 14 WK BEGINNING 1 WK PRIOR TO CARCINOGEN TREATMENT (STUDY DURATION: 36 WK), Target Tissue: Type of Lesion: GLANDULAR STOMACH: ADENOCARCINOMA, Dose [Carcinogen]: 400 PPM IN DRINKING WATER FOR 12 WK", "result": "59%, 32%, 46%, not significant [study A]; also recorded: 13/22 (59%), 7/22 (32%), 46%, not significant [study B]"},
      {"measurement": "tumour outcome (control, treated, inhibition, significance)", "setting": "Carcinogen: N-METHYL-N-NITROSOUREA, 684-93-5, 500 PPM IN DIET FOR 22 WK BEGINNING 1 WK POST CARCINOGEN TREATMENT (STUDY DURATION: 36 WK), Target Tissue: Type of Lesion: GLANDULAR STOMACH: ADENOCARCINOMA, Dose [Carcinogen]: 400 PPM IN DRINKING WATER FOR 12 WK", "result": "59%, 50%, 15%, not significant [study A]; also recorded: 13/22 (59%), 11/22 (50%), 15%, not significant [study B]"},
      {"measurement": "tumour outcome (control, treated, inhibition, significance)", "setting": "Carcinogen: N-METHYL-N-NITROSOUREA, 684-93-5, 1000 PPM IN DIET FOR 22 WK BEGINNING 1 WK POST CARCINOGEN TREATMENT (STUDY DURATION: 36 WK), Target Tissue: Type of Lesion: GLANDULAR STOMACH: ADENOCARCINOMA, Dose [Carcinogen]: 400 PPM IN DRINKING WATER FOR 12 WK", "result": "59%, 23%, 61%, p<0.05 [study A] and 13/22 (59%), 5/22 (23%), 61%, p<0.05 [study B]"}
    ]}
  ]
}
